# ChEMBL document CHEMBL4888484, “Replenishing the malaria drug discovery pipeline: Screening and hit evaluation of the MMV Hit Generation Library 1 (HGL1) against asexual blood stage Plasmodium falciparum ,using a nano luciferase reporter read-out” (2022)
# Hit rate of the full screen: of about 150,000 compounds, about 540 (0.36%) showed an effect of 50% or more. The list shows a part of the results.
# Test system: Plasmodium falciparum
# Test: Primary screen in NF54 nanoGlo assay, in single point, at 2uM, 72h; a lower Z score goes with more inhibition
# Format: functional, Erythrocyte
# Conditions: timepoint 72 hour
SMILES,% Inhibition [%],Z score
Cn1ccnc1C1CC(NC(=O)C2CC(C)(C)Oc3ccccc32)CCO1 (configuration not stated),-4,0.68
Cc1nn(CCO)c(C)c1[C@@H]1NCCc2[nH]cnc21,-16,2.3
CCCN(CCO)[C@@H](C(=O)O)c1ccc(OC(C)C)cc1,7,-1.03
COc1cc([C@H]2CC(=O)Nc3c2c(=O)[nH]n3C2CCCCC2)ccc1O,28,-3.16
CC1(C)CN(S(=O)(=O)c2cncc(C#N)c2)[C@H]2COC[C@H]21,-7,0.8
COc1cccc(-c2n[nH]c3c2CN(c2cc(NCCO)ncn2)CC3)c1,1,-0.22
CC(C)(O)c1cn(C2CN(C(=O)Nc3ccccc3)C2)nn1,-6,1.01
O=C(N[C@@H](Cc1ccccc1)c1nnc(N2CCCCC2)o1)c1ccc(Br)o1,12,-1.41
Cc1ccc2c(c1)CCCN2C(=O)[C@H]1CCc2[nH]c(C)nc2C1,-2,0.29
CCc1oc2c(NC(=O)NCCN3CCC[C@H](C(N)=O)C3)cccc2c1C,-1,0.28
N#Cc1ccc(NC(=O)C[C@@H]2C=CCC2)nc1,-9,1.46
CC1CCCN(S(=O)(=O)NC(C)c2ccccn2)C1 (configuration not stated),-9,0.95
O=C(c1cc(C2CC2)[nH]c(=O)c1)N1CCc2[nH]c3ccc(F)cc3c2C1,-12,1.97
COCCCS(=O)(=O)N(C)Cc1cccc(Cl)c1Cl,10,-1.15
CC(C)Oc1ccc(CN[C@H]2CCCc3nc(N(C)C)ncc32)cc1,5,-0.73
COCCN(C)CC(=O)NCc1c(C)nn(C(C)C)c1C,-8,1.56
O=C(NCCc1csc(-c2ccccc2)n1)c1ccc(-n2ccnc2)nn1,-12,2.35
CCn1c(CNC(C)C2CCCO2)nc2c(F)cccc21 (configuration not stated),-2,0.45
COc1ccc(-c2ccc3c(c2)C(=O)N2C[C@@H](NS(=O)(=O)c4ccc(F)cc4)C[C@H]2C(=O)N3)cc1,30,-3.34
CCN(CC)C(=O)[C@@H](C)[C@@H]1CC[C@@]2(C)CC[C@H](NC(=O)c3cccc(F)c3)[C@@H](C)[C@@H]2[C@H]1O,-12,1.6
Cc1cc(NC(=O)COc2ccccc2Br)nnc1C,-10,1
CCC(CC)C(=O)N1C[C@@H]2Oc3ncccc3C(=O)N(C)[C@@H]2C1,-5,0.7

SMILES,% Inhibition [%],Z score
Cc1ccsc1CN(CCO)Cc1cccs1,-3,0.43
Cc1ccc(O)c(C(=O)NC2CCN(c3cnccn3)CC2)c1,2,-0.43
Cc1cnccc1CNC(=O)N1CCCC1CC(O)c1ccco1 (configuration not stated),-1,0.07
Cc1ccc(NC(=O)c2cnn(-c3ccncc3)c2C)c(Cl)c1,-17,1.7
CC(=O)Nc1ccc(Cl)c(Cl)c1C,-5,0.77
N#CCCN(CC1CC1)S(=O)(=O)Cc1ccc(Cl)cc1C#N,-12,1.37
CCCCc1nc(-c2nccn2CCS(=O)(=O)N(C)C)c[nH]1,32,-2.82
CC1CC(NCC(=O)NCC2CC2)CN(C(=O)OC(C)(C)C)C1 (configuration not stated),30,-3.77
Cc1ccc(F)cc1S(=O)(=O)N1CC[C@H](CN(C)C)[C@@H](O)C1,-1,0.1
O=C1C2CN(Cc3ccccc3)CC2C(=O)N1CCC1CCCO1 (configuration not stated),9,-1.79
O=C1C2ON(c3ccccc3)C(c3ccncc3)C2C(=O)N1c1ccc2ccccc2c1 (configuration not stated),38,-4.34
CCC[C@H]1COCCN1Cc1cccc(C(=O)Nc2ccc(C)nn2)c1,-1,0.22
CC(C)C[C@H]1COCCN1c1ncc(C#N)cc1Cl,-8,1.23
COc1ccc([C@H]2C3CCCCC3(O)CCN2Cc2ccc(C)cc2)c(OC)c1 (some centres not stated),-4,0.76
NC(=O)c1cc(F)cc(Br)c1,-3,0.67
CCc1nn(CC)c(=O)c2cc(S(=O)(=O)Nc3cc(OC)cc(OC)c3)cn12,-6,0.81
N#Cc1ccccc1S(=O)(=O)N1CCC(N2CCC(Oc3nccs3)CC2)CC1,-12,1.48
Cc1nnc([C@@H]2CC3(CCN(CCc4ccccc4)CC3)CN2Cc2cccnc2)o1,8,-1
CN(CC1CCCCC1)C(=O)c1cc(-c2ccco2)[nH]n1,-12,2.45
C=C=CCNS(=O)(=O)CCO[C@H]1CCOC1,13,-1.66
O=C(CN1CCCCC1=O)N[C@@H]1C[C@H]1c1c(F)cccc1Cl,-2,0.23
CCOC(=O)c1nc(COC(C)=O)cs1,-5,0.61

SMILES,% Inhibition [%],Z score
CCOc1cc(NCc2nc(C)[nH]c2C)ncn1,-16,3.01
Cc1nnc(-c2cnn(C)c2N)n1CCc1ccccc1,5,-0.68
Cc1nc(N2CCCC2)nc(C)c1NC(=O)COc1ncccn1,-5,0.81
COc1cc2c(cc1NC(=O)NCCc1csc(N)n1)n(C)c(=O)n2C,-14,2.59
c1ccc(N(c2ccccc2)c2nc(N3CCCCC3)nc(N3CCCCC3)n2)cc1,-10,1.27
O=C(CN1CCCOC1=O)N1CCCCCCC1,-11,1.53
Cc1nsc(N2CCC(O[C@H]3CCOC3)CC2)c1C#N,-2,0.17
Cn1cc(NC(=O)N[C@H]2CCN(C(=O)OCc3ccccc3)C2)nn1,1,-0.14
CC1(NCc2ccc(Oc3ccccc3)o2)CCOCC1,-1,0.15
O=S(=O)(c1cccnc1)N1CC(N2CC(F)(F)C[C@H]2CO)C1,-2,0.19
C=CCC[C@H](O)CN1CCN(c2nc(-c3ccccc3)nc(CC)c2Cc2ccc(F)cc2)CC1,-12,1.92
CCn1nncc1CNC1CCCCC1,-9,0.89
CCc1cnc(NC(=O)[C@H]2CCCO2)o1,-2,0.44
Cc1nc(-c2nc(C3CCOCC3)nn2-c2cccc(C(=O)O)c2)cs1,-11,2.08
CC1CCCCC1NC(=O)C1c2cccn2CC(=O)N1Cc1ccccc1 (configuration not stated),-4,0.58
C[C@H]1CN(C(=O)C2=NN(Cc3ccc(F)cc3)C(=O)CC2)CCO1,-8,0.87
Cc1n[nH]c(=O)c(C(=O)N2CC3CCCCC3C2)c1C (configuration not stated),4,-0.48
COC(=O)[C@@H]1CCCN1C1CCN(Cc2nocc2C)CC1,0,-0.02
Cc1cccc(Oc2nc(N(C)Cc3ccccc3)nc3c2CN(S(=O)(=O)c2ccccc2)CC3)c1,1,-0.11
CC(C)c1cccc(N(C)CCCS(C)(=O)=O)c1,-12,1.37
CC(C)Oc1cc(CNS(=O)(=O)c2cnc(N)nc2)ccn1,3,-0.56
CNC(=O)NC[C@H]1COCCN1C(=O)c1[nH]nc(C(F)(F)F)c1C,-11,1.2

SMILES,% Inhibition [%],Z score
Cn1nccc1CN1CC[C@H]1c1cccs1,4,-0.52
Cc1ccc(-c2ncc(C(=O)N3CCC[C@H]3c3cc(C)on3)c(O)n2)cc1,-9,1.35
O=C(c1coc(COc2cccc(F)c2)n1)N1C[C@H](O)[C@@H](N2CCCC2)C1,5,-0.67
COCc1noc(CN2C[C@@H]3CC[C@H]2CN(Cc2ccc(F)cc2)C3)n1,-16,1.47
Cc1cnccc1N1CC(C)OC(C2CC2)C1 (configuration not stated),-10,0.84
Cn1cnc(C(=O)N(CCCN2CCCC2=O)C2CCOCC2)c1,-6,0.69
CCS(=O)(=O)NCCNc1ncc(Br)cc1C,-12,2.21
COc1cccc(Cn2c(=O)c(C(=O)NCc3ccco3)nn(-c3ccc(C)cc3)c2=O)c1,-21,1.85
O=C(O)CC1CN(C(=O)C2CCCc3ccccc32)CCO1 (configuration not stated),-9,1.58
C[C@H](NC(=O)NC1CCOCC1)c1ccc(S(C)(=O)=O)c(F)c1,-6,1.21
CN(C)c1cc(NC(=O)NC[C@H]2CCCCN2C2CC2)ccn1,-3,0.62
COc1ccccc1CNc1ccc(C(=O)Oc2ccccc2Cl)cc1S(=O)(=O)Nc1cccc(C(F)(F)F)c1,2,-0.41
O=C(c1nn[nH]c1Nc1ccccc1F)N1CCCCCC1,-3,0.34
O[C@H]1CN(c2ncnc3ccsc23)CC[C@@H]1N1CCOCC1,-11,2.09
CC1CCCN(S(=O)(=O)N2CCCC(c3nncn3C)C2)C1 (configuration not stated),-8,1.47
Cc1noc(C(F)(F)F)c1C(=O)NC1CCC(C)CC1 (configuration not stated),4,-0.59
CCCCN1C(=O)[C@](NC(=O)CC(C)C)(C(F)(F)F)C(C(C)=O)=C1C,-4,0.48
O=C(NC[C@H](C(=O)O)C1CCCCC1)C1CC=CC1,-1,0.19
CC(C)c1nc2ccccc2n1CCNC(=O)C[C@@H]1N=C(O)c2ccccc2NC1=O,-12,2.22
CS(=O)(=O)c1ccnc(NC(=O)N2C[C@@H](C3CC3)C[C@H]2C2CC2)c1,-6,1.11
